Results taken from the supplement of paper PMC11417369.
The list shows a part of the results.

Test system: PfSIP2 AP2 domain 1 (GST-tagged)
Experiment: gcPBM binding intensity (ln(normalized median fluorescence intensity)); higher = stronger DNA binding
How it was run: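 After 1 h on an Agilent 4 × 180k array of primer-extended double-stranded 36-bp intergenic genomic probes and negative controls, bound GST-tagged P. falciparum DNA-binding domains were detected with Alexa488 anti-GST antibody and scanned at 488 nm. The domains had been expressed in E. coli, and binding took place in 1× PBS with 1% milk, 0.2 mg/ml BSA, 0.5% salmon testes DNA and 0.03% Triton X-100. Binding intensity is the highest Masliner-normalised natural-log median intensity across replicate spots of either probe orientation.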

| Sequence | gcPBM binding intensity (ln) |
| --- | --- |
| TATATATGTGTATAGAGTACACGTTTTTTTTAATAT [XGTACX_site3128] | 6.94 |
| AAAAACCTGAACTGTGCATGTCATACTTTTACTTTT [TGCATGCA_site73] | 7.55 |
| TAAATACATCTATGCACACAAAAAAATATATATTTT [CACACA_site5027] | 7.76 |
| TGTATAAACTTTACGTGTACATGAATAATCTATAAT [XGTACX_site3801] | 7.12 |
| AAAATGGAACTAGGAATAATATAAGAAGATAAAAGG [XGTACX_negctrl_site347] | 7.3 |
| TTGTACAAAAATAATGCACACTATATCAAGTTTTTT [CACACA_site5898] | 7.33 |
| TTTATAAATTCTCTTTTTAAAAAATATTTTTATACT [CACACA_negctrl_site427] | 6.63 |
| AAAATAATTTTATAAGTGCAAAATAGCTTATTTATA | 7.75 |
| TAATCATTTTAGCTTACACACAAAATTTTGTTATAA [CACACA_site2939] | 6.93 |
| TATACGTATTACAGAGTGCAATAAACAGTATATATT | 7.92 |
| GTAAAACAGATTTACAGTACACATGTGTTATGTTTT [XGTACX_site2933] | 7.01 |
| TTTTTATATTTTATTATTTTTTTTATATAAAAAATT [CACACA_negctrl_site601] | 7.02 |
| ATAAAAATATTTGAATGTACTTATAAGATATATATA [XGTACX_site4257] | 7.15 |
| TTTATATATAAATAATGTACAAAAAATTTTAAAAAG [XGTACX_site7990] | 7.27 |
| AAATCGTGCACGGACACATGCAGTAGCCGAGAATTA [TGCATGCA_site733] | 8.89 |
| TATTTTAATTTTTGTTGTACGCAAATGTGAGGGCAT [XGTACX_site4663] | 7.4 |
| TAAACCAAAAAAAGTAGTACAAATATTATAAAAAAA [XGTACX_site8497] | 6.96 |
| GATGTATTCATACATGCACACGTACATATTTAAATA [CACACA_site9299] | 7.21 |
| GTTCATAAATTAAACACACACACACGGCTGGATACC [CACACA_site7545] | 7.35 |
| AGGTAGAAAAAAGACACACACATTAGATATTTATAT [CACACA_site6313] | 6.87 |
| GTTCAAATTATTATGTGTACTAAAGAATATTTTAAA [XGTACX_site3166] | 7 |
| CTTTATTTTTTATACACACACAATATGTATTTATAT [CACACA_site5879] | 7.35 |
| TCTATTTTTTATATGGTGCATTGTTCTTATTAATAT [GTGCAC_site9392] | 10.5 |

| Sequence | gcPBM binding intensity (ln) |
| --- | --- |
| AGGAAAAATAATTATTCACACAATAAATATATTTGA [CACACA_site5824] | 6.82 |
| AATTAATTTATGTTACGTACATAAGTATTATATTTT [XGTACX_site388] | 7.28 |
| TATTAACACTTTATAGAAACAAAAAAATAAGCAAAA [XGTACX_negctrl_site295] | 7.14 |
| TTTGAATTTTTTAACACACACATGTGTGGATATATA [CACACA_site6872] | 6.96 |
| AAATTTATATAATATTGTACATTAAAAATTATATAT [XGTACX_site8009] | 7.06 |
| TGGGTAATACATAATACACACATGTATATGTCGCAT [CACACA_site1125] | 6.8 |
| AGTATATATACACAAGGGGAATACATATACAAAATT [TGCATGCA_negctrl_site244] | 6.89 |
| TTTTTAAAAAAGATAAGCGAAAGAATTAATTTTTAA [GTGCAC_negctrl_site197] | 6.7 |
| TATGTATAAATATATGCACACATATATATATTTATA [CACACA_site9150] | 7.18 |
| ATATATATAATAAACACACACATATACATATATGTA [CACACA_site3462] | 7.6 |
| AAGTTGTATATTGATTGTACTTGTTTAGGGTTATAG [XGTACX_site2953] | 7.17 |
| TATATATATATAATGTGTACACAAATATATATTATA [XGTACX_site8786] | 9.24 |
| AGGTAAAATATACATTGTACATATAATTAATTTATT [XGTACX_site626] | 6.95 |
| AATATAAATTAATTTACACACTAAAAAATATTTATA [CACACA_site7728] | 7.09 |
| ACATACTTTAATATATGTACATAAGAAAAAAAAAAA [XGTACX_site2991] | 7.11 |
| TATAAGAATGACAAGTGTACATATCAAATATATTAG [XGTACX_site7113] | 6.93 |
| TATTTTTTATATTTATTTATTTAAAGGAGCTTTTCT [GTGCAC_negctrl_site293] | 6.67 |
| TATACTAAAAAATACACATGCACATACAATATATAT [TGCATGCA_site1016] | 7.84 |
| AAAATAATATATAATTGTACTTTTTTTTTATATATA [XGTACX_site6093] | 6.84 |
| ATTATTACACAACGTTGTACATTTCAATATTTTTAT [XGTACX_site5096] | 7.16 |
| TTTTTTCTTAAAATTTGTACATAGTGCAATTTTTTT [XGTACX_site5509] | 8.62 |
| TTTCTTTTTTTTTAATGTACTTTTTTTATAAAAGGT [XGTACX_site5688] | 7.27 |
